Measured values reported in article PMC10726135.
The other results are listed elsewhere or left out. At the low end of the ranking the order means little. The protein was read in a cell extract, so binding may be indirect.

What follows are sequences tested against T1, HNF4alpha2 (COS-7 nuclear extract) (UniProt P41235) (assay: protein-binding microarray). Settings: COS-7 nuclear extract on double-stranded Agilent 4x180k PBM; binding buffer, salt, pH and temperature not given; high values mean tight binding; double strand, one strand shown; sequences stand for … in …GCCTAGGGAGATTAGAGTATCGGTCGA.
T1 sequence: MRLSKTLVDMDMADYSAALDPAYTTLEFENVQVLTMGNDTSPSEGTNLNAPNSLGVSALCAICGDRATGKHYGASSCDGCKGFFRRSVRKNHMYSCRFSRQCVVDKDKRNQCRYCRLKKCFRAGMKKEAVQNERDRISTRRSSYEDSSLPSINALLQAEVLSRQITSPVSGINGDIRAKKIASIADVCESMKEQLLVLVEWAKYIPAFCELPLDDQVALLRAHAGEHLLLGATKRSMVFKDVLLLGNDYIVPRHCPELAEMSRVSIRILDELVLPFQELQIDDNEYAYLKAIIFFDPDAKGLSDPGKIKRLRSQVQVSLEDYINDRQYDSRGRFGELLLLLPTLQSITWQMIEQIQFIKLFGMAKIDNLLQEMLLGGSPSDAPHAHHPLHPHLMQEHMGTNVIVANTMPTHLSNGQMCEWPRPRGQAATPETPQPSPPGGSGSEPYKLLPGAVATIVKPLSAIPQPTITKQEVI

Sequence	binding signal (log2 normalized intensity)
GAGGAACAGGTGGGGGTAAACATAGCAGAA	-1.14
GGCAATTTCCCTGGTCGACCTCCCCGTCAC	2.62
CCCTGAGTAGTTCTTCTGGTTAGTTTTTCA	1.22
ACCGCCATAACTCAGCGGGAGGCAAGATAA	-1.07
CACCTCTTCCAGAGTTCAGAGGAACTTTAT	0.543
GACCTTAGTACTCTGCCATGTGCTATTCTG	2.37
TGAGATAGGAGGTCAGCACAAGATACAGCT	-1.11
GGAGAGAAAAGCAAGATTGGGAGCTGGGAG	-1.1
GTTCCTGCCTGGAGCCACTGAAGTGAGTTA	-0.826
TAAAGCAGAGGGCTGCTTGCAGGAGGCCGG	-1.21
GTGACCCGTGACCCTCAGGAACCAAGCATT	1.53
TTTCAGTGCCCTCATAAGAGACTTTGCCCT	6.34
GTAGCTTCAAACCAGTTATTCCAAGATCCA	-1.24
TTTCTCCTCTCTGGGCTTCCATTGTGATTC	1.02
GGAGGTTATCTTGGGGCTAATGTCTCTCTG	1.01
TGTTTATCTTACAGGCTTATACGTGGAAGA	1.46
GGGTCAAAGCCCAGGAGAGCAAAAAGGGCC	-1.13
GTGTTTATAAAGTTGGGAAAAGTAACACAG	0.914
TCATGGGCCAAAGTTTGTTTCTTATCACAC	1.6
TTCAGTCTAAATGATGGCCAGGGAGTACAC	1.28
CCGGACTCTGCCCCACAATTCTTGGATCTC	1.5
GGAATCCTCCTAAGTAGCCAAGATTACAGC	-1.17
CTCTCCCCAGTTCAAAGGTTAAGACTTTGA	4.74
GACCCTGGCCGGAAACTCCGCCCCATTGTC	2.06
GCAGGTAGGGGTGGGATGGGGAGCAGTGGG	-1.19

Sequence	binding signal (log2 normalized intensity)
ATTAACCTTTGAGCTGGGTGGCCCTCTCCC	2.92
CCCTCAGCAAACCTTCTGGCAGTGGGAGTA	-0.388
AGGGGCAGGGTTCACATAGCCACCAGGGCC	-1.12
GTGAATAGCACTGACCAGCTCCAAAGTCCG	2.89
TTGGACATGTAACTGCTATTGGTTGTCAGA	1.71
CTGTCCATCTTTTGCCCCTCTTATGCCCCT	5.39
AGAACCTTGGAGGCGGCGGCTCCGGGAGCT	-1.1
GGGGGACTTCAAAAGCCGGGGAAAGGGAAA	-1.16
TTCGGGAGACATGTGGCCTTTGGTACAGGG	2.63
TATTTGGATAATGTGCCCTTTGTACCTGGG	7.01
CTGGGTTCCAAAAGGCACATAGATTCCCAG	-1.2
AGAGGGTTAACCCCTATTAACCAAAGCTAC	-1.03
GTGACTCTAGGAACCTTTCTCCATACCTCT	-0.999
CTCTTTCTAGGTCACCACCTTTTTTGGCCT	1.97
CCAGTCAGAATCTCTCTGTAGGTAAAGACT	-1.05
CCTTGTTGCCCACCCCCCAAGTAGAGAGCA	4.85
AATAATAGTTGACCTTTGAGAACCTCCCAT	4.08
ATGCCTCACCTGGCAAGGCAGCCTCAGCCA	-0.986
TCTAGAGTCTGACTACTTCTCACCACCTCT	-1.15
GTGTGCAATTAGAGCAAAGGTTACTGCAGA	2.62
GTCAAAGGGTACAAATTCCAGAGAGGGGCC	0.929
ACAGGGTGTGGCTTCCAAGGGGAATGTGGA	-0.683
TCTTTTTAATCAATAATCTTTGCCCTTGAA	2.63
GAGTCCAGTGAACAAAACATGGATTTTGGA	1.62
ACCAAGCAAGCCAGTCAGAATCTCTCTGTA	-1.09

Sequence	binding signal (log2 normalized intensity)
CTTTGGCTGCAAAATTTGAACAAAAAAAGA	-1.15
GCAAAGGTCAGCTCATTCCCTAGGGCTCGG	-0.876
GGCCAGTTTGATCACAAGACATGAAGATGC	-0.708
CGAGCTTCACCTTTGTCCTCTCTCCCACAA	2.99
CTCAAAGTCTAACCCAACTAAGAACACAGT	-0.363
GAAAGGAGAAGCTGGAGATAAGGATAGAGG	-1.2
TTTATGACCTTTGACTGCAGAAGATAAGAA	3.94
TTGAAGATAATCACCCGATAAGCTGACCCC	5.46
TAGAGCTTTTGAGGGTGACCGATCGTTATT	1.6
TCAACATCAAAGGCCTTCCTATCTCTACTT	-1.18
CGCCTGCAGAAACTTTCTTTTTGTTGTTAG	1.52
CCCATCCCCAACAAAGCTCTGCATCCTTCC	1.39
CCTTGTCTAAGCCCTTATCAAAAAGATAAG	-1.11
ACTTCATTCAGGTAGCAGGCCTCAGAGATA	0.375
TGTGCCCTCGGGTCCCACACACCTCAAATG	-1.08
TTGTTCTATTAACCTGGCCAAACACCAAAT	0.25
GCGGTGCCATTCACAGGAATGTTGGCAGCA	-1.04
TGAGGAAGGCTCTTTGTTCAGAGGGCATGT	1.95
AAGAAGTCCAAGGACTTATCCTTGGGACAT	-1.12
GGTCAGCAATGGTAATTACCTTCTAGTGGT	0.405
GAGGTCAAGATAAGATACGAAGGGTTTAAA	-0.603
CTATGTCCTTATCCTCATTGTGTGCAGACC	1.99
GCATACAAAACAACCACTCTTATCAGACAG	-1.07
